Laboratory results: the supplement of paper PMC8728848
Some of the results follow.

What was measured:
Experiment in all cases: glycan array binding signal (z-score within array); higher = stronger binding
Conditions in all cases: glycan notation: IUPAC condensed, linker removed
[1] = target: Man(b1-4)GlcNAc
In short: (§1)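 Columns mapping to the same glycan were averaged after glycan names were converted to IUPAC-condensed notation. The data come from 3228 arrays in the Consortium for Functional Glycomics database, limited to those with an available protein sequence. Binding is reported as a within-array Z-score averaged across arrays of one protein sequence and across linkers.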

[2] = target: Neu5Ac(a2-3)Gal
In short: as §1

[3] = target: Neu5Ac(a2-3)Gal(b1-3)GalNAc
In short: as §1

[4] = target: Neu5Ac(a2-3)Gal(b1-3)GalNAc(b1-3)Gal(a1-4)Gal(b1-4)Glc
In short: as §1

[5] = target: Neu5Ac(a2-3)Gal(b1-3)GalNAc(b1-4)[Neu5Ac(a2-3)]Gal(b1-4)Glc
In short: as §1

[6] = target: Neu5Ac(a2-3)Gal(b1-3)GalNAc6S
In short: as §1

[7] = target: Neu5Ac(a2-3)Gal(b1-3)GlcNAc
In short: as §1

[8] = target: Neu5Ac(a2-3)Gal(b1-3)GlcNAc(b1-2)Man(a1-3)[Neu5Ac(a2-3)Gal(b1-3)GlcNAc(b1-2)Man(a1-6)]Man(b1-4)GlcNAc(b1-4)GlcNAc
In short: as §1

[9] = target: Neu5Ac(a2-3)Gal(b1-3)GlcNAc(b1-3)Gal(b1-3)GlcNAc
In short: as §1

[10] = target: Neu5Ac(a2-3)Gal(b1-3)GlcNAc(b1-3)Gal(b1-4)GlcNAc
In short: as §1

[11] = target: Neu5Ac(a2-3)Gal(b1-3)GlcNAc(b1-3)GalNAc
In short: as §1

[12] = target: Neu5Ac(a2-3)Gal(b1-3)GlcNAc6S
In short: as §1

[13] = target: Neu5Ac(a2-3)Gal(b1-3)[Fuc(a1-4)]GlcNAc
In short: as §1

[14] = target: Neu5Ac(a2-3)Gal(b1-3)[Fuc(a1-4)]GlcNAc(b1-3)Gal(b1-3)[Fuc(a1-4)]GlcNAc
In short: as §1

[15] = target: Neu5Ac(a2-3)Gal(b1-3)[Fuc(a1-4)]GlcNAc(b1-3)Gal(b1-4)[Fuc(a1-3)]GlcNAc
In short: as §1

[16] = target: Neu5Ac(a2-3)Gal(b1-3)[Neu5Ac(a2-3)Gal(b1-4)]GlcNAc
In short: as §1

[17] = target: Neu5Ac(a2-3)Gal(b1-3)[Neu5Ac(a2-6)]GalNAc
In short: as §1

[18] = target: Neu5Ac(a2-3)Gal(b1-4)Glc
In short: as §1

[19] = target: Neu5Ac(a2-3)Gal(b1-4)GlcNAc
In short: as §1

[20] = target: Neu5Ac(a2-3)Gal(b1-4)GlcNAc(b1-2)Man(a1-3)[GlcNAc(b1-2)Man(b1-4)GlcNAc(b1-2)Man(a1-6)]Man(b1-4)GlcNAc(b1-4)GlcNAc
In short: as §1

[21] = target: Neu5Ac(a2-3)Gal(b1-4)GlcNAc(b1-2)Man(a1-3)[Neu5Ac(a2-6)Gal(b1-4)GlcNAc(b1-2)Man(a1-6)]Man(b1-4)GlcNAc(b1-4)GlcNAc
In short: as §1

[22] = target: Neu5Ac(a2-3)Gal(b1-4)GlcNAc(b1-3)Gal(b1-3)GlcNAc
In short: as §1

[23] = target: Neu5Ac(a2-3)Gal(b1-4)GlcNAc(b1-3)Gal(b1-4)GlcNAc
In short: as §1

[24] = target: Neu5Ac(a2-3)Gal(b1-4)GlcNAc(b1-3)Gal(b1-4)GlcNAc(b1-3)Gal(b1-4)GlcNAc
In short: as §1

[25] = target: Neu5Ac(a2-3)Gal(b1-4)GlcNAc(b1-3)Gal(b1-4)[Fuc(a1-3)]GlcNAc
In short: as §1

[26] = target: Neu5Ac(a2-3)Gal(b1-4)GlcNAc(b1-3)GalNAc
In short: as §1

[27] = target: Neu5Ac(a2-3)Gal(b1-4)GlcNAc(b1-6)[Gal(b1-3)]GalNAc
In short: as §1

[28] = target: Neu5Ac(a2-3)Gal(b1-4)GlcNAc(b1-6)[Neu5Ac(a2-3)Gal(b1-3)]GalNAc
In short: as §1

[29] = target: Neu5Ac(a2-3)Gal(b1-4)GlcNAc6S
In short: as §1

[30] = target: Neu5Ac(a2-3)Gal(b1-4)[Fuc(a1-3)]GlcNAc
In short: as §1

[31] = target: Neu5Ac(a2-3)Gal(b1-4)[Fuc(a1-3)]GlcNAc(b1-3)Gal
In short: as §1

[32] = target: Neu5Ac(a2-3)Gal(b1-4)[Fuc(a1-3)]GlcNAc(b1-3)Gal(b1-4)GlcNAc
In short: as §1

[33] = target: Neu5Ac(a2-3)Gal(b1-4)[Fuc(a1-3)]GlcNAc(b1-3)Gal(b1-4)[Fuc(a1-3)]GlcNAc(b1-3)Gal(b1-4)[Fuc(a1-3)]GlcNAc
In short: as §1

[34] = target: Neu5Ac(a2-3)Gal(b1-4)[Fuc(a1-3)]GlcNAc(b1-3)GalNAc
In short: as §1

[35] = target: Neu5Ac(a2-3)Gal(b1-4)[Fuc(a1-3)]GlcNAc(b1-6)[Gal(b1-3)]GalNAc
In short: as §1

[36] = target: Neu5Ac(a2-3)Gal(b1-4)[Fuc(a1-3)]GlcNAc(b1-6)[Neu5Ac(a2-3)Gal(b1-3)]GalNAc
In short: as §1

[37] = target: Neu5Ac(a2-3)Gal(b1-4)[Fuc(a1-3)]GlcNAc6S
In short: as §1

[38] = target: Neu5Ac(a2-3)Gal6S(b1-4)GlcNAc
In short: as §1

B1: Gal 3 (Homo sapiens), P17931 (protein)
chain: MADNFSLHDALSGSGNPNPQGWPGAWGNQPAGAGGYPGASYPGAYPGQAPPGAYPGQAPPGAYHGAPGAYPGAPAPGVYPGPPSGPGAYPSSGQPSAPGAYPATGPYGAPAGPLIVPYNLPLPGGVVPRMLITILGTVKPNANILDFQRGNDVAFHFNPRFNENNRRVIVCNTKLDNNWGREERQSVFPFESGKPFKIQVLVEPDHFKVAVNDAHLLQYNHRVKKLNEISKLGISGDIDLTSASYTMI
glycan array binding signal (z-score) [1]: -0.389
glycan array binding signal (z-score) [2]: -0.388
glycan array binding signal (z-score) [3]: -0.388
glycan array binding signal (z-score) [4]: -0.391
glycan array binding signal (z-score) [5]: -0.392
glycan array binding signal (z-score) [6]: -0.39
glycan array binding signal (z-score) [7]: -0.383
glycan array binding signal (z-score) [8]: -0.388
glycan array binding signal (z-score) [9]: 2.29
glycan array binding signal (z-score) [10]: 2.27
glycan array binding signal (z-score) [11]: -0.375
glycan array binding signal (z-score) [12]: -0.391
glycan array binding signal (z-score) [13]: -0.391
glycan array binding signal (z-score) [14]: -0.383
glycan array binding signal (z-score) [15]: -0.389
glycan array binding signal (z-score) [16]: -0.389
glycan array binding signal (z-score) [17]: -0.389
glycan array binding signal (z-score) [18]: -0.383
glycan array binding signal (z-score) [19]: -0.375
glycan array binding signal (z-score) [20]: 1.19
glycan array binding signal (z-score) [21]: -0.254
glycan array binding signal (z-score) [22]: 0.01
glycan array binding signal (z-score) [23]: 0.063
glycan array binding signal (z-score) [24]: 3.82
glycan array binding signal (z-score) [25]: -0.392
glycan array binding signal (z-score) [26]: -0.386
glycan array binding signal (z-score) [27]: -0.393
glycan array binding signal (z-score) [28]: -0.385
glycan array binding signal (z-score) [29]: -0.273
glycan array binding signal (z-score) [30]: -0.39
glycan array binding signal (z-score) [31]: -0.393
glycan array binding signal (z-score) [32]: -0.385
glycan array binding signal (z-score) [33]: -0.392
glycan array binding signal (z-score) [34]: -0.364
glycan array binding signal (z-score) [35]: -0.389
glycan array binding signal (z-score) [36]: -0.374
glycan array binding signal (z-score) [37]: -0.393
glycan array binding signal (z-score) [38]: -0.387
